The source of these data is the supplement of paper PMC9135407.

Where “and” joins values, the source holds several entries; their conditions need not be identical. Identical values can stand only once. Counter-ions that a name gives are not always drawn. About 620 (11%) of roughly 5,800 compounds showed activity.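 How the source made its calls: active = score above a cut-off or among the top three wells of a plate; in these data no inactive exceeds 0.85.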 The entries are a selection whose mix differs from that of the whole data set.

In this experiment the test system is primary human hepatic stellate cells (donor 1). As to the kind of experiment: scaled lipid accumulation score (0 = DMSO-like, 1 = nortriptyline-like); higher = stronger HSC inactivation (lipid re-accumulation), active = hit call of the paper. The conditions noted are these: 48 h.
[1] abbreviates: library stock concentration: 3.33 mM.
The mark [2] stands for this setting: library stock concentration: 10 mM.
Setting [3] is: library stock concentration: 1 mM.
[4] abbreviates: library stock concentration: 80 uM.
[5] abbreviates: library stock concentration: 400 uM.
Where [6] appears, read: library stock concentration: 2 mM.
The mark [7] stands for this setting: library stock concentration: 5.9 mM.
The mark [8] stands for this setting: library stock concentration: 4.9 mM.

For the compound `CC(C)(C)NC[C@@H](O)COc1cccc2c1CCCC2=O` [(+) -Levobunolol hydrochloride], the “scaled lipid accumulation score” value is inactive: ≤ 0.

As for `CO[C@H]1/C=C/O[C@@]2(C)Oc3c(C)c(O)c4c(O)c(c(/C=N/N5CCN(C6CCCC6)CC5)c(O)c4c3C2=O)NC(=O)/C(C)=C\C=C\[C@H](C)[C@H](O)[C@@H](C)[C@@H](O)[C@@H](C)[C@H](OC(C)=O)[C@@H]1C` [Rifapentine], the “scaled lipid accumulation score” value under setting [1] is inactive: ≤ 0 and the “scaled lipid accumulation score” value under setting [2] is inactive: ≤ 0.

Take `CO[C@H]1/C=C/O[C@@]2(C)Oc3c(C)c(O)c4c(O)c(c(/C=N/N5CCN(C6CCCC6)CC5)c(O)c4c3C2=O)NC(=O)/C(C)=C\C=C\[C@H](C)[C@H](O)[C@@H](C)[C@@H](O)[C@@H](C)[C@H](OC(C)=O)[C@@H]1C`: the “scaled lipid accumulation score” value under setting [2] is inactive: ≤ 0 and inactive: 0.131.

Take `N=C(N)NC(=N)NCCc1ccccc1` [Phenformin HCl]: the “scaled lipid accumulation score” value is inactive: ≤ 0 under setting [1] and inactive: ≤ 0 under setting [2].

As to `N=C(N)NC(=N)NCCc1ccccc1` [Phenformin hydrochloride], the “scaled lipid accumulation score” value is inactive: 0.025. Further, for the setting “library stock concentration: 8.3 mM”, the “scaled lipid accumulation score” value was inactive: ≤ 0.

With `CC(=O)S[C@@H]1CC2=CC(=O)CC[C@]2(C)[C@H]2CC[C@@]3(C)[C@@H](CC[C@@]34CCC(=O)O4)[C@H]12` [Spironolactone], the “scaled lipid accumulation score” value is inactive: 0.026. For the same compound, under setting [1], the “scaled lipid accumulation score” value was inactive: ≤ 0. In addition, for the setting “library stock concentration: 4.8 mM”, the “scaled lipid accumulation score” value was inactive: ≤ 0. Further, under setting [2], the “scaled lipid accumulation score” value was inactive: ≤ -0.001 and inactive: ≤ 0.

As to `CCCc1cc(C(N)=S)ccn1` [Prothionamide], the “scaled lipid accumulation score” value under setting [2] is inactive: ≤ -0.027.

As to `CCCc1cc(C(N)=S)ccn1` [Protionamide], the “scaled lipid accumulation score” value reads like this: under setting [1], inactive: ≤ 0; under setting [2], inactive: ≤ 0.

Consider `CCCCCCCCCCCCCCCCCC=CC(=O)O` [.DELTA.2-cis Eicosenoic Acid], for which the “scaled lipid accumulation score” value under setting [3] was inactive: 0.011.

Consider `COc1cc2c(Nc3ccc(NC(=O)c4ccccc4)cc3)ncnc2cc1OCCCN1CCOCC1`, for which the “scaled lipid accumulation score” value runs as follows: under setting [4], inactive: ≤ -0.001; under setting [5], inactive: ≤ -0.009; under setting [6], inactive: 0.256.

For the compound `O=C(O)[C@]1(Cc2cccc(Nc3nccs3)n2)CC[C@@H](Oc2cccc(Cl)c2F)CC1`, the “scaled lipid accumulation score” value runs as follows: under setting [1], inactive: ≤ 0; under setting [2], inactive: 0.039.

Consider `CC(Cc1cccc(C(F)(F)F)c1)NCCOC(=O)c1ccccc1` (stereo not drawn) [Benfluorex hydrochloride], for which the “scaled lipid accumulation score” value is inactive: 0.522. The “scaled lipid accumulation score” value under setting [2] was inactive: ≤ 0.

Consider `C=C1CC[C@H](O)C/C1=C/C=C1\CCC[C@]2(C)[C@@H]([C@H](C)CCCC(C)C)CC[C@@H]12` [Cholecalciferol], for which the “scaled lipid accumulation score” value is inactive: 0.021. Where the note is “library stock concentration: 5.2 mM”, the “scaled lipid accumulation score” value was inactive: ≤ 0.

For the compound `NC1(C(=O)O)CCCCC1` [1-Amino-1-cyclohexanecarboxylic acid hydrochloride], the “scaled lipid accumulation score” value under setting [2] was inactive: 0.029.

As to `NNCCc1ccccc1` [Phenelzine sulfate], the “scaled lipid accumulation score” value is inactive: 0.022. In addition, under setting [2], the “scaled lipid accumulation score” value is inactive: 0.002 and inactive: ≤ 0.

On to `NNCCc1ccccc1` [Phenelzine], for which the “scaled lipid accumulation score” value under setting [2] was inactive: ≤ 0.

Turning to `NNCCc1ccccc1`, the “scaled lipid accumulation score” value under setting [2] is inactive: ≤ 0.

`COC(=O)C1=C(C)NC(C)=C(C(=O)OCCCN2CCC(c3ccccc3)(c3ccccc3)CC2)[C@@H]1c1cccc([N+](=O)[O-])c1` [(R)-(-)-Niguldipine hydrochloride]: the “scaled lipid accumulation score” value under setting [2] was inactive: ≤ -0.006.

On to `CC(=O)OCC(=O)[C@@]1(O)CC[C@H]2[C@@H]3CCC4=CC(=O)C=C[C@]4(C)[C@@]3(Cl)[C@@H](Cl)C[C@@]21C`, for which, under setting [2], the “scaled lipid accumulation score” value is inactive: ≤ 0.

In the case of `CCCCN(CCCC)CCCOC(=O)c1ccc(N)cc1` [Butacaine], the “scaled lipid accumulation score” value was inactive: ≤ 0. For the same compound, the “scaled lipid accumulation score” value under setting [2] was inactive: 0.192.

Consider `Cc1ccc(C(=O)c2ccc(CC(=O)O)n2C)cc1` [Tolmetin sodium salt dihydrate], for which the “scaled lipid accumulation score” value is inactive: ≤ 0.

On to `Cc1ccc(C(=O)c2ccc(CC(=O)O)n2C)cc1` [Tolmetin sodium], for which the “scaled lipid accumulation score” value by setting is: (library stock concentration: 7.2 mM) inactive: ≤ 0; under setting [2], inactive: ≤ 0.

Consider `COC(=O)Nc1nc2cc(C(=O)c3cccs3)ccc2[nH]1` [Nocodazole], for which the “scaled lipid accumulation score” value runs as follows: under setting [1], inactive: 0.021; (library stock concentration: 6.6 mM) inactive: 0.262.

For the compound `CC[N+](C)(CC)CCOC(=O)C1c2ccccc2Oc2ccccc21` [Methantheline bromide], the “scaled lipid accumulation score” value was inactive: ≤ 0.

As for `O=C(O)CN1C(=O)c2cccc3cccc(c23)C1=O` [Alrestatin], the “scaled lipid accumulation score” value was inactive: 0.015 (library stock concentration: 7.8 mM) and inactive: ≤ 0 under setting [2].

For `CCCn1ncc(-c2ccnc(NC3CC(C)(C)NC(C)(C)C3)n2)c1C`, the “scaled lipid accumulation score” value under setting [2] was active: 0.86.

On to `CC(=O)OCC(=O)[C@@]1(O)CC[C@H]2[C@@H]3CCC4=CC(=O)CC[C@]4(C)[C@@]3(F)[C@@H](O)C[C@@]21C` [Fludrocortisone acetate], for which the “scaled lipid accumulation score” value was inactive: 0.002. Besides, the “scaled lipid accumulation score” value (library stock concentration: 4.7 mM) was inactive: ≤ -0.001. Also, the “scaled lipid accumulation score” value under setting [2] was inactive: ≤ 0.

Consider `O=C(O)CCCCCCCC(=O)O` [Azelaic acid], for which the “scaled lipid accumulation score” value under setting [2] was inactive: 0.136 and inactive: ≤ 0; the “scaled lipid accumulation score” value (library stock concentration: 10.6 mM) is inactive: ≤ 0.

As for `COc1cc(Br)c(Nc2nc(-c3c(C)nc4ncccn34)cs2)c(Br)c1`, the “scaled lipid accumulation score” value was inactive: 0.014 and inactive: ≤ -0.009 under setting [1]; inactive: 0.744 and inactive: 0.132 under setting [2].

`COc1ccc2c3c([nH]c2c1)[C@H]1C[C@H]2[C@H](C[C@@H](O)[C@H](OC)[C@H]2C(=O)O)CN1CC3` [Reserpinic acid hydrochloride]: the “scaled lipid accumulation score” value was inactive: ≤ 0.

On to `CN1CCN(C2=Nc3cc(Cl)ccc3Nc3ccccc32)CC1` [Clozapine], for which, under setting [2], the “scaled lipid accumulation score” value was active: 0.967.

Turning to `NS(=O)(=O)c1cc(C2(O)NC(=O)c3ccccc32)ccc1Cl` (stereo not drawn) [Chlorthalidone], the “scaled lipid accumulation score” value was inactive: ≤ 0. Moreover, the “scaled lipid accumulation score” value under setting [7] was inactive: ≤ -0.001. Moreover, under setting [2], the “scaled lipid accumulation score” value was inactive: ≤ 0.

As for `CCCCCCCCCCCCCCCC(=O)OC/C=C(C)/C=C/C=C(C)/C=C/C1=C(C)CCCC1(C)C` [Retinyl palmitate], under setting [2], the “scaled lipid accumulation score” value was inactive: 0.112.

For the compound `C=CC(N)CCC(=O)O` (stereo not drawn) [(?)-gamma-Vinyl GABA], under setting [2], the “scaled lipid accumulation score” value was inactive: ≤ 0.

Take `C=CC(N)CCC(=O)O` (stereo not drawn) [Vigabatrin]: the “scaled lipid accumulation score” value is inactive: 0.039. Moreover, the “scaled lipid accumulation score” value (library stock concentration: 15.5 mM) was inactive: 0.02.

Take `O=C(O)Cc1c2ccccc2n2c1[nH]c(=O)c1ccccc12`: the “scaled lipid accumulation score” value reads like this: under setting [4], inactive: ≤ -0.001; under setting [5], inactive: ≤ -0.001; under setting [6], inactive: ≤ -0.001; under setting [2], inactive: ≤ -0.001.

Turning to `CC(=O)OCC(=O)[C@@]1(O)CC[C@H]2[C@@H]3CCC4=CC(=O)CC[C@]4(C)[C@H]3[C@@H](O)C[C@@]21C` [Hydrocortisone acetate], the “scaled lipid accumulation score” value runs as follows: under setting [8], inactive: ≤ -0.001; under setting [2], inactive: ≤ 0.

For `CC(=O)OCC(=O)[C@@]1(O)CC[C@H]2[C@@H]3CCC4=CC(=O)CC[C@]4(C)[C@H]3[C@@H](O)C[C@@]21C` [Cortell], the “scaled lipid accumulation score” value under setting [2] was inactive: ≤ 0.

Take `CC(=O)OCC(=O)[C@@]1(O)CC[C@H]2[C@@H]3CCC4=CC(=O)CC[C@]4(C)[C@H]3[C@@H](O)C[C@@]21C` [Hydrocortisone 21-acetate]: the “scaled lipid accumulation score” value under setting [8] is inactive: ≤ 0.

`Cc1ncc(C[n+]2csc(CCO)c2C)c(N)n1` [Thiamine hydrochloride]: the “scaled lipid accumulation score” value was inactive: 0.067.

Turning to `Cc1ncc(C[n+]2csc(CCO)c2C)c(N)n1` [Thiamine], the “scaled lipid accumulation score” value under setting [7] was inactive: ≤ 0.

Regarding `CC(C)c1c(C(=O)Nc2ccccc2)c(-c2ccccc2)c(-c2ccc(F)cc2)n1CC[C@@H](O)C[C@@H](O)CC(=O)O` [Atorvastatin Calcium], the “scaled lipid accumulation score” value reads like this: under setting [1], inactive: 0.322; under setting [2], inactive: 0.32.

Turning to `CC(C)c1c(C(=O)Nc2ccccc2)c(-c2ccccc2)c(-c2ccc(F)cc2)n1CC[C@@H](O)C[C@@H](O)CC(=O)O` [Atorvastatin calcium], the “scaled lipid accumulation score” value under setting [2] was inactive: 0.003.

For the compound `CC(C)c1c(C(=O)Nc2ccccc2)c(-c2ccccc2)c(-c2ccc(F)cc2)n1CC[C@@H](O)C[C@@H](O)CC(=O)O` [Atorvastatin calcium salt trihydrate], the “scaled lipid accumulation score” value under setting [2] was inactive: 0.743.

Take `CCN[C@H]1CN(CCCOC)S(=O)(=O)c2sc(S(N)(=O)=O)cc21` [Brinzolamide]: the “scaled lipid accumulation score” value was inactive: ≤ 0. The “scaled lipid accumulation score” value under setting [1] is inactive: ≤ 0. Under setting [2], the “scaled lipid accumulation score” value is inactive: ≤ -0.001.

`CCCCCC(O)/C=C/C1C(O)CC(O)C1CCCCC(CC(=O)O)OC` (stereo not drawn) [3-methoxy Prostaglandin F1.alpha.]: the “scaled lipid accumulation score” value under setting [3] was inactive: ≤ 0.

On to `NCCc1c[nH]cn1` [Histamine], for which, under “library stock concentration: 45 mM”, the “scaled lipid accumulation score” value was inactive: ≤ -0.008.

As for `NCCc1c[nH]cn1` [Histamine 2HCl], the “scaled lipid accumulation score” value was inactive: ≤ 0 under setting [1] and inactive: ≤ -0.001 under setting [2].

Turning to `NCCc1c[nH]cn1` [Histamine dihydrochloride], the “scaled lipid accumulation score” value reads like this: under setting [2], inactive: ≤ -0.07 and inactive: 0.062 and inactive: ≤ 0; (library stock concentration: 10.9 mM) inactive: ≤ -0.001.

Regarding `OC(Cn1cncn1)(Cn1cncn1)c1ccc(F)cc1F` [Fluconazole], the “scaled lipid accumulation score” value by setting is: under setting [1], inactive: ≤ 0; under setting [2], inactive: 0.048 and inactive: ≤ -0.027 and inactive: ≤ 0.

Turning to `CCCOc1cc(N)ccc1C(=O)OCCN(CC)CC` [Propoxycaine hydrochloride], the “scaled lipid accumulation score” value is inactive: ≤ 0.

Consider `O=C(c1cc2cc(O)ccc2[nH]1)c1cc2cc(O)ccc2[nH]1` [Flt-3 Inhibitor II], for which, under setting [1], the “scaled lipid accumulation score” value is inactive: ≤ 0.

Regarding `CC(=O)[C@@]1(O)CC[C@H]2[C@@H]3C=C(Cl)C4=CC(=O)[C@@H]5C[C@@H]5[C@]4(C)[C@H]3CC[C@@]21C` [Cyproterone], the “scaled lipid accumulation score” value under setting [2] is inactive: 0.093.

As to `C[C@@H](NCCCc1cccc(C(F)(F)F)c1)c1cccc2ccccc12` [Cinacalcet HCl], the “scaled lipid accumulation score” value is inactive: 0.207 under setting [1] and inactive: 0.351 under setting [2].

For `CC(=O)Nc1cccc(-n2c(=O)n(C3CC3)c(=O)c3c(Nc4ccc(I)cc4F)n(C)c(=O)c(C)c32)c1`, the “scaled lipid accumulation score” value under setting [4] is inactive: ≤ -0.009; the “scaled lipid accumulation score” value under setting [5] was inactive: ≤ -0.003; the “scaled lipid accumulation score” value under setting [6] was inactive: 0.049; the “scaled lipid accumulation score” value under setting [1] was inactive: ≤ 0; the “scaled lipid accumulation score” value under setting [2] was inactive: ≤ 0 and inactive: 0.058.

Regarding `Nc1[nH]cnc2ncnc1-2` [Adenine HCl], the “scaled lipid accumulation score” value under setting [1] was inactive: ≤ 0 and the “scaled lipid accumulation score” value under setting [2] is inactive: ≤ 0.

For `Nc1[nH]cnc2ncnc1-2` [Adenine], under setting [2], the “scaled lipid accumulation score” value was inactive: 0.02.

For the compound `CO[C@@H](C(=O)N1Cc2[nH]nc(NC(=O)c3ccc(N4CCN(C)CC4)cc3)c2C1)c1ccccc1`, under setting [2], the “scaled lipid accumulation score” value is active: 0.915.
